Data reported in paper PMC4336329 (PLoS ONE, 2015).
Out of some 310,000 compounds screened, about 14,000 (4.5%) showed an effect of 50% or more. Effects have a minus sign here. Some of the results follow.

These compounds were tested against human ether-à-go-go-related gene (hERG) potassium channel (human, UniProt Q12809) (assay: primary screen, population patch clamp on CHO cells stably expressing hERG).
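Further: peak tail current of the secondary pulse compared with the same well before compound.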

Chain of human ether-à-go-go-related gene (hERG) potassium channel (Q12809 whole entry, looked up): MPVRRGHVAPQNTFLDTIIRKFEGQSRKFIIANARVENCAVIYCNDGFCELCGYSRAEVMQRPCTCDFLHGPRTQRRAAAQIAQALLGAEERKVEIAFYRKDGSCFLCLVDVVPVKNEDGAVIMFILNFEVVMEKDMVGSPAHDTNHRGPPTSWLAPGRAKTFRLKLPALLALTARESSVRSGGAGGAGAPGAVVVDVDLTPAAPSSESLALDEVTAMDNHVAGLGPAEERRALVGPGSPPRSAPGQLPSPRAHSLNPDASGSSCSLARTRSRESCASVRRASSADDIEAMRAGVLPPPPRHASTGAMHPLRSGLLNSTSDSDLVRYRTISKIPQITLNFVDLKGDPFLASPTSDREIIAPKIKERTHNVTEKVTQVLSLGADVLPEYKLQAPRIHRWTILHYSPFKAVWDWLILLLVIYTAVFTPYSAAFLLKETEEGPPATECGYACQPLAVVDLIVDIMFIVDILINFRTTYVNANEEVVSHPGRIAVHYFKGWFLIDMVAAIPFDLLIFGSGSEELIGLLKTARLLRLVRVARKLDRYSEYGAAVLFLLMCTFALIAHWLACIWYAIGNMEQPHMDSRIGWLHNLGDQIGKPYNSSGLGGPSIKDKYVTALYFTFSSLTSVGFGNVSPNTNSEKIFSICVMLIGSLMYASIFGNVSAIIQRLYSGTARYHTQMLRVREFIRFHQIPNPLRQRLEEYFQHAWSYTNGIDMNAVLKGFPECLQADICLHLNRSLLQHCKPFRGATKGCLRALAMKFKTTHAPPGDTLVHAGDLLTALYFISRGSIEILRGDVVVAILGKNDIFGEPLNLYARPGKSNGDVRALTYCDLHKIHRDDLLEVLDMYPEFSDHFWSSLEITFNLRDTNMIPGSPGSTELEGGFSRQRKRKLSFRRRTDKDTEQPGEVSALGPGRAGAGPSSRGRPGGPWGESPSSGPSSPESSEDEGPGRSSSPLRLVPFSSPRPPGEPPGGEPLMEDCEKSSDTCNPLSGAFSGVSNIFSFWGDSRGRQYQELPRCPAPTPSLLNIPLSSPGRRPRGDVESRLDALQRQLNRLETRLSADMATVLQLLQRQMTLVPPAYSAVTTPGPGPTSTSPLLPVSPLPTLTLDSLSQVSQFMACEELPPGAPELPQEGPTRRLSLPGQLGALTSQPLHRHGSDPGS

SMILES | hERG current change (%, negative = inhibition) at 10uM [%]
COCCCNC(=S)NNC(=S)Nc1cccc(Cl)c1 | 20.7
COc1ccc(C/C(C)=N/NC(=O)c2ccc(Cl)cc2)cc1 | 5.78
CCc1cc2c(=O)n(-c3ccc(Br)cc3)cnc2s1 | 7.06
Fc1cccc(-c2cc3nc4c(c(NCc5ccco5)n3n2)CCCC4)c1 | -33.2
O=C(CN1CCCCC1)Nc1ccc(S(=O)(=O)N2CCOCC2)cc1 | -12.5
Cc1nc2ccc(NC(=O)c3cccnc3)cc2s1.O=C(O)C(=O)O | 1.03
COc1cccc(NC(=O)CN(C)C(=O)CC2Sc3ccccc3NC2=O)c1 (stereo not shown) | -36
COc1ccccc1CNS(=O)(=O)c1c(C)nc2scc(C)n2c1=O | -8.78
CC1(C)O[C@H]2CC(=O)OCC23[C@H]2CC[C@@]4(C)[C@H](c5ccoc5)OC(=O)[C@H]5O[C@]54[C@]2(C)C(=O)C[C@@H]13 (stereo partly shown) | -2.63
Cc1cccc(NC(=O)CN2C(=O)C(C)Oc3ccccc32)n1 (stereo not shown) | 7.32
NC(=O)c1cc2cc(Br)ccc2oc1=NCc1ccccc1 | 10.4
O=C1CN(C(=O)CNCc2ccccc2)c2ccccc2N1 | 1.93
CCCCN(C(=O)C(C)Oc1ccc(Cl)cc1)c1c(N)n(CCCC)c(=O)[nH]c1=O (stereo not shown) | -17.1
O=C(Nc1ccncc1)Nc1ccc(Cl)cc1 | -6.33
CCc1nnc(NC(=O)CSc2nc(-c3ccccc3)cc(-c3ccc(F)cc3)c2C#N)s1 | 8.43
CCC(=O)NC(=S)Nc1ccc(NC(=O)c2ccco2)c(OC)c1 | -7.8
C=CCn1c(N2CCCCCC2)nc2c1c(=O)[nH]c(=O)n2C | 5.65
CC(=O)C1=C(O)C(=O)N(c2ccc(C)cc2)C1c1ccccn1 (stereo not shown) | 25.5
Cc1cccc(NCc2ccccc2O)n1 | 6.89
CCC(C)c1ccc2oc(-c3ccc(NC(=O)c4ncn[nH]4)cc3)nc2c1 (stereo not shown) | -1.89
COc1cccc(S(=O)(=O)NCc2ccc(C(=O)NCc3ccco3)cc2)c1 | -11.8
Cc1ccc(C(=O)Oc2ccc(C(=O)COC(=O)C3CC(=O)N(Cc4ccco4)C3)cc2)cc1 (stereo not shown) | -14.4

SMILES | hERG current change (%, negative = inhibition) at 10uM [%]
O=C(CN1CCN(C(=O)c2cccc(S(=O)(=O)N3CCCC3)c2)CC1)Nc1ccccc1Cl | -66.8
Cc1ccc(C)c(N(CC(=O)Nc2cc(Cl)ccc2Oc2ccccc2)S(C)(=O)=O)c1 | 2.6
C=CCN1C(=O)CN=C1NCc1ccccc1.Cl | 8.01
COc1ccccc1C(=O)OCC(=O)Nc1ccccc1OC(F)F | -19
O=C(CCC(=O)N/N=C/c1ccc(Br)o1)N/N=C/c1ccc(Br)o1 | -2.69
COc1ccc(NC(=O)Cc2nnc(SCC(=O)NC3CCCCC3C)n2C)cc1 (stereo not shown) | 7.28
COc1cc(/C=N\N=C2/SC(CC(=O)O)C(=O)N2c2ccc(O)cc2)ccc1O (stereo not shown) | 18.6
COc1cc(C2C(C(=O)c3ccc(C)o3)=C(O)C(=O)N2c2cc(C)on2)ccc1OCc1ccccc1 (stereo not shown) | -12.2
O=C(CSC(=S)N1CCCCC1)N1N=CCC1c1ccccc1 (stereo not shown) | -25.3
CN(/C(=N\S(=O)(=O)c1ccccc1)C(F)(F)F)c1ccccc1 | -3.25
O=C(c1ccc(Cn2cc(Br)cn2)cc1)N1N=C(C(F)F)CC1(O)C(F)F (stereo not shown) | 5.3
Cc1nnc(NC(=O)c2ccc(S(=O)(=O)C(F)F)cc2)s1 | -6.86
O=C(CN1C(=O)C2(OCCCO2)c2ccccc21)NCCc1ccccc1 | -0.278
O=C(NCc1ccco1)NCC(F)(F)F | 11.6
O=C(CCc1ccccc1)Nc1nc2ccc(S(=O)(=O)N3CCOCC3)cc2s1 | 18.5
CCC(=O)c1ccc(N2CCN(C(=O)c3ccccc3)CC2)c(F)c1 | -70.1
CCOC(=O)N/N=C/c1ccc(OCCSc2ccc(Cl)cc2)c(OCC)c1 | -9.33
Cc1nc2c(C)cccn2c(=O)c1NC(=O)c1ccco1 | -6.74
Cc1cc(C(=O)OCC(=O)N(C)c2c(N)n(Cc3ccccc3)c(=O)[nH]c2=O)c(C)n1-c1ccccc1 | 3.48
CS(=O)(=O)N1CCN(C(=O)c2cc(-c3cccnc3)nc3ccc(Cl)cc23)CC1 | 0.512
Cc1ccc(S(=O)(=O)c2c(C)c(C)c(C)[nH]c2=O)cc1 | 14.9
CCOc1ccccc1NC(=O)C1CCCN(S(=O)(=O)c2cccc3cccnc23)C1 (stereo not shown) | -8.06

SMILES | hERG current change (%, negative = inhibition) at 10uM [%]
Cc1nc(C)c(-c2csc(Nc3ccc(F)cc3)n2)s1 | -25.1
C=CCCN(Cc1ccccc1)S(=O)(=O)c1ccccc1Br | 3.42
CC(C)(C)NCCOCCOc1ccccc1-c1ccccc1.O=C(O)C(=O)O | -28.6
O=C(c1ccco1)N1CCN(C(=O)c2sccc2-c2ccccc2)CC1 | -8.12
Cc1ccc(CCN2CC(C(=O)NCCCN3CCC(C)CC3)CC2=O)cc1 (stereo not shown) | 9.28
CC(NC(=O)Nc1cccc(F)c1)c1ccc2c(c1)OCO2 (stereo not shown) | 15.4
CCOc1ccc(S(=O)(=O)N2CCC(C(=O)NCCN3CCOCC3)CC2)cc1C | 1.77
COc1ccccc1NC(=O)N1CCN(C)CC1 | 17.9
COc1ccc(/C=N/NC(=O)c2cc(-c3ccccc3OC(C)C)nc3ccccc23)cc1CN1CCOCC1 | -4.54
CN1/C(=C\C(=O)c2cncc(Br)c2)C(C)(C)c2ccccc21 | 2.55
CNC(=O)c1sc(-c2ccc(Cl)cc2)nc1C | 9.02
CN(C)S(=O)(=O)Nc1ccccn1 | 16.5
CCOC(=O)c1ccc(NC(=O)CCc2nnc3ccc(N4CCN(C)CC4)nn23)cc1 | 6.9
Cn1cnc([N+](=O)[O-])c1Nc1ccccc1O | 11.6
COc1ccc(S(=O)(=O)N2CCN(C(=O)CC(C)C)CC2)cc1 | 12
NC(=S)Nc1cccc(F)c1 | 8.59
Cc1nc2c(F)c(F)c(C(F)(F)F)c(F)c2[nH]1 | -8.71
O=C(Cc1cccs1)Nc1cccc(-c2nc3cc4ccccc4cc3[nH]2)c1 | 1.42
Br.O=C(Cn1c(NCCCO)nc2ccccc21)c1cccc(Br)c1 | -9.87
Cc1ccc(Cn2ccc(NC(=O)c3cc4nc(-c5ccco5)cc(C(F)(F)F)n4n3)n2)cc1 | 3.04
O=C(O)CSc1nnc(COc2cccc3cccnc23)n1-c1ccc(Cl)cc1 | 8.71
CN(CC(=O)N1CCN(Cc2ccccc2)CC1)S(=O)(=O)c1ccc(F)cc1 | -28.7

SMILES | hERG current change (%, negative = inhibition) at 10uM [%]
Cc1ccc(C(=O)NCc2ccco2)cc1S(=O)(=O)Nc1cccc(C)c1C | -32.2
c1cnc(-c2nnc3n2CCCCC3)cn1 | 17.3
Cc1cccc(C)c1Nc1nnc(SCC(=O)Nc2sccc2C#N)s1 | -9.87
C=CCOc1ccc(Br)cc1CNCCO.Cl | 0.469
CCOc1ccc(N2C(=O)CC(N(C)Cc3ccccc3)C2=O)cc1 (stereo not shown) | 25.8
COc1ccc(OCC(O)CNCc2ccco2)cc1 (stereo not shown) | 1.32
CCn1c(=O)cc(OCC(=O)N2CCN(c3cccc(C(F)(F)F)c3)CC2)c2ccccc21 | -48.2
CC(c1ccccc1)C(Cc1nc2ccccc2[nH]1)c1nc2ccccc2[nH]1 (stereo not shown) | -20.9
O=C(N/N=C/C=C\c1ccccc1[N+](=O)[O-])c1cc(-c2ccccc2)nc2ccccc12 | 12.4
Cc1cc(=O)[nH]c(-n2[nH]c3c(c2=O)CCCC3)n1 | 8.28
N#CCCn1c(=O)n(CCC#N)c2ccccc21 | 12
CC(C)Cn1c(=O)c(C(=O)NCc2ccccn2)c(O)c2ccccc21 | -12.9
O=C(c1ccco1)N1CCN(Cc2cc(=O)c(OCc3ccc(F)cc3)co2)CC1 | -62.2
Cc1cc(OCC(=O)N2CCOCC2)cc2oc(=O)c3ccccc3c12 | -0.691
COc1cc(CCC(=O)NNC(=O)c2ccc(C)cc2)cc(OC)c1OC | 4.59
Cc1ccc(S(=O)(=O)N=S(CC2CC2(Cl)Cl)CC2CC2(Cl)Cl)cc1 (stereo not shown) | -19.8
COc1ccccc1N1CCN(C(=O)c2cc3ccccc3[nH]2)CC1 | 0.954
COc1ccc(CCN(C)C(=O)CSc2ncnc3sccc23)cc1OC | 11.2
C/C(=N\Nc1ccc(F)cc1F)c1ccc(F)cc1 | 9.16
Cc1ccc(CNC(=O)COC(=O)c2ccc(S(=O)(=O)N3CCCC3)cc2)cc1 | -8.84
Cc1cccc(N2CCN(C(=O)c3cccn4c(=O)c5c(C)c(C)sc5nc34)CC2)c1C | 21.6
COc1ccccc1/C=N/NC(=O)Cn1cnc([N+](=O)[O-])n1 | 9.01
